# The list shows a part of the results.
# Columns and labels:
# Assay in all cases: glycan array binding signal (z-score within array); higher = stronger binding
# Details in all cases: glycan notation: IUPAC condensed, linker removed
# [1] = target: Man(a1-2)Man(a1-3)[Man(a1-6)]Man(a1-6)[Man(a1-2)Man(a1-3)]Man(b1-4)GlcNAc(b1-4)GlcNAc
# Outline: (§1)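 Negative Z-scores can be read as non-binding. The Z-score is calculated within each array and then averaged across arrays of one protein sequence at different concentrations or buffers and across linkers. Arrays, 3228 in all, were curated from the Consortium for Functional Glycomics database and kept only where the protein sequence was available.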
# [2] = target: Man(a1-2)Man(a1-6)[Man(a1-3)]Man(a1-6)[Man(a1-2)Man(a1-2)Man(a1-3)]Man
# Outline: as §1
# [3] = target: Man(a1-2)Man(a1-6)[Man(a1-3)]Man(a1-6)[Man(a1-2)Man(a1-2)Man(a1-3)]Man(b1-4)GlcNAc(b1-4)GlcNAc
# Outline: as §1
# Man(a1-3)[Man(a1-6)]Man = target: Man(a1-3)[Man(a1-6)]Man
# Outline: as §1
# [4] = target: Man(a1-3)[Man(a1-6)]Man(a1-6)[Man(a1-2)Man(a1-3)]Man(b1-4)GlcNAc(b1-4)GlcNAc
# Outline: as §1
# [5] = target: Man(a1-3)[Man(a1-6)]Man(a1-6)[Man(a1-3)]Man
# Outline: as §1
# [6] = target: Man(a1-3)[Man(a1-6)]Man(a1-6)[Man(a1-3)]Man(b1-4)GlcNAc(b1-4)GlcNAc
# Outline: as §1
# [7] = target: Man(a1-3)[Man(a1-6)]Man(b1-4)GlcNAc(b1-4)GlcNAc
# Outline: as §1
# Man(a1-6)Man = target: Man(a1-6)Man
# Outline: as §1
# Man(b1-4)GlcNAc = target: Man(b1-4)GlcNAc
# Outline: as §1
# Neu5Ac(a2-3)Gal = target: Neu5Ac(a2-3)Gal
# Outline: as §1
# [8] = target: Neu5Ac(a2-3)Gal(b1-3)GalNAc
# Outline: as §1
# [9] = target: Neu5Ac(a2-3)Gal(b1-3)GalNAc(b1-3)Gal(a1-4)Gal(b1-4)Glc
# Outline: as §1
# [10] = target: Neu5Ac(a2-3)Gal(b1-3)GalNAc(b1-4)[Neu5Ac(a2-3)]Gal(b1-4)Glc
# Outline: as §1
# [11] = target: Neu5Ac(a2-3)Gal(b1-3)GalNAc(b1-4)[Neu5Ac(a2-8)Neu5Ac(a2-3)]Gal(b1-4)Glc
# Outline: as §1
# [12] = target: Neu5Ac(a2-3)Gal(b1-3)GalNAc6S
# Outline: as §1
# [13] = target: Neu5Ac(a2-3)Gal(b1-3)GlcNAc
# Outline: as §1
# [14] = target: Neu5Ac(a2-3)Gal(b1-3)GlcNAc(b1-3)Gal(b1-3)GlcNAc
# Outline: as §1
# [15] = target: Neu5Ac(a2-3)Gal(b1-3)GlcNAc(b1-3)Gal(b1-4)GlcNAc
# Outline: as §1
# [16] = target: Neu5Ac(a2-3)Gal(b1-3)GlcNAc(b1-3)GalNAc
# Outline: as §1
# [17] = target: Neu5Ac(a2-3)Gal(b1-3)GlcNAc6S
# Outline: as §1
# [18] = target: Neu5Ac(a2-3)Gal(b1-3)[Fuc(a1-4)]GlcNAc
# Outline: as §1
# [19] = target: Neu5Ac(a2-3)Gal(b1-3)[Fuc(a1-4)]GlcNAc(b1-3)Gal(b1-3)[Fuc(a1-4)]GlcNAc
# Outline: as §1
# [20] = target: Neu5Ac(a2-3)Gal(b1-3)[Fuc(a1-4)]GlcNAc(b1-3)Gal(b1-4)[Fuc(a1-3)]GlcNAc
# Outline: as §1
# [21] = target: Neu5Ac(a2-3)Gal(b1-3)[Neu5Ac(a2-3)Gal(b1-4)]GlcNAc
# Outline: as §1
# [22] = target: Neu5Ac(a2-3)Gal(b1-3)[Neu5Ac(a2-6)]GalNAc
# Outline: as §1
# Neu5Ac(a2-3)Gal(b1-4)Glc = target: Neu5Ac(a2-3)Gal(b1-4)Glc
# Outline: as §1
# [23] = target: Neu5Ac(a2-3)Gal(b1-4)GlcNAc
# Outline: as §1
# [24] = target: Neu5Ac(a2-3)Gal(b1-4)GlcNAc(b1-2)Man(a1-3)[GlcNAc(b1-2)Man(b1-4)GlcNAc(b1-2)Man(a1-6)]Man(b1-4)GlcNAc(b1-4)GlcNAc
# Outline: as §1
# [25] = target: Neu5Ac(a2-3)Gal(b1-4)GlcNAc(b1-2)Man(a1-3)[Neu5Ac(a2-6)Gal(b1-4)GlcNAc(b1-2)Man(a1-6)]Man(b1-4)GlcNAc(b1-4)GlcNAc
# Outline: as §1
# [26] = target: Neu5Ac(a2-3)Gal(b1-4)GlcNAc(b1-3)Gal
# Outline: as §1
# [27] = target: Neu5Ac(a2-3)Gal(b1-4)GlcNAc(b1-3)Gal(b1-3)GlcNAc
# Outline: as §1
# [28] = target: Neu5Ac(a2-3)Gal(b1-4)GlcNAc(b1-3)Gal(b1-4)GlcNAc
# Outline: as §1
# [29] = target: Neu5Ac(a2-3)Gal(b1-4)GlcNAc(b1-3)Gal(b1-4)GlcNAc(b1-3)Gal(b1-4)GlcNAc
# Outline: as §1
# [30] = target: Neu5Ac(a2-3)Gal(b1-4)GlcNAc(b1-3)Gal(b1-4)[Fuc(a1-3)]GlcNAc
# Outline: as §1
# [31] = target: Neu5Ac(a2-3)Gal(b1-4)GlcNAc(b1-3)GalNAc
# Outline: as §1
# [32] = target: Neu5Ac(a2-3)Gal(b1-4)GlcNAc(b1-6)[Gal(b1-3)]GalNAc
# Outline: as §1
# [33] = target: Neu5Ac(a2-3)Gal(b1-4)GlcNAc(b1-6)[Neu5Ac(a2-3)Gal(b1-3)]GalNAc
# Outline: as §1
# [34] = target: Neu5Ac(a2-3)Gal(b1-4)GlcNAc6S
# Outline: as §1
# [35] = target: Neu5Ac(a2-3)Gal(b1-4)[Fuc(a1-3)]GlcNAc
# Outline: as §1
# [36] = target: Neu5Ac(a2-3)Gal(b1-4)[Fuc(a1-3)]GlcNAc(b1-3)Gal
# Outline: as §1
# [37] = target: Neu5Ac(a2-3)Gal(b1-4)[Fuc(a1-3)]GlcNAc(b1-3)Gal(b1-4)GlcNAc
# Outline: as §1
# [38] = target: Neu5Ac(a2-3)Gal(b1-4)[Fuc(a1-3)]GlcNAc(b1-3)Gal(b1-4)[Fuc(a1-3)]GlcNAc(b1-3)Gal(b1-4)[Fuc(a1-3)]GlcNAc
# Outline: as §1
# [39] = target: Neu5Ac(a2-3)Gal(b1-4)[Fuc(a1-3)]GlcNAc(b1-3)GalNAc
# Outline: as §1
# [40] = target: Neu5Ac(a2-3)Gal(b1-4)[Fuc(a1-3)]GlcNAc(b1-6)[Gal(b1-3)]GalNAc
# Outline: as §1
binder,measurement,setting,value
"CV-2L (Chromobacterium violaceum), Q7NX84 (protein) MAQQGVFTLPARINFGVTVLVNSAATQHVEIFVDNEPRAAFSGVGTGDNNLGTKVINSGSGNVRVQITANGRQSDLVSSQLVLANKLNLAVVGSEDGTDMDYNDSIVILNWPLG",glycan array binding signal (z-score),[1],-0.109
same,glycan array binding signal (z-score),[2],0.854
same,glycan array binding signal (z-score),[3],0.659
same,glycan array binding signal (z-score),Man(a1-3)[Man(a1-6)]Man,1.18
same,glycan array binding signal (z-score),[4],0.839
same,glycan array binding signal (z-score),[5],0.352
same,glycan array binding signal (z-score),[6],0.347
same,glycan array binding signal (z-score),[7],0.151
same,glycan array binding signal (z-score),Man(a1-6)Man,-0.248
same,glycan array binding signal (z-score),Man(b1-4)GlcNAc,-0.329
same,glycan array binding signal (z-score),Neu5Ac(a2-3)Gal,-0.352
same,glycan array binding signal (z-score),[8],-0.338
same,glycan array binding signal (z-score),[9],-0.329
same,glycan array binding signal (z-score),[10],-0.335
same,glycan array binding signal (z-score),[11],-0.322
same,glycan array binding signal (z-score),[12],-0.347
same,glycan array binding signal (z-score),[13],-0.352
same,glycan array binding signal (z-score),[14],-0.345
same,glycan array binding signal (z-score),[15],-0.348
same,glycan array binding signal (z-score),[16],-0.33
same,glycan array binding signal (z-score),[17],-0.344
same,glycan array binding signal (z-score),[18],1.87
same,glycan array binding signal (z-score),[19],1.77
same,glycan array binding signal (z-score),[20],0.616
same,glycan array binding signal (z-score),[21],-0.322
same,glycan array binding signal (z-score),[22],-0.316
same,glycan array binding signal (z-score),Neu5Ac(a2-3)Gal(b1-4)Glc,-0.332
same,glycan array binding signal (z-score),[23],-0.339
same,glycan array binding signal (z-score),[24],-0.337
same,glycan array binding signal (z-score),[25],-0.345
same,glycan array binding signal (z-score),[26],-0.251
same,glycan array binding signal (z-score),[27],-0.339
same,glycan array binding signal (z-score),[28],-0.323
same,glycan array binding signal (z-score),[29],-0.354
same,glycan array binding signal (z-score),[30],-0.359
same,glycan array binding signal (z-score),[31],-0.347
same,glycan array binding signal (z-score),[32],-0.336
same,glycan array binding signal (z-score),[33],-0.338
same,glycan array binding signal (z-score),[34],-0.326
same,glycan array binding signal (z-score),[35],-0.318
same,glycan array binding signal (z-score),[36],-0.337
same,glycan array binding signal (z-score),[37],-0.308
same,glycan array binding signal (z-score),[38],-0.301
same,glycan array binding signal (z-score),[39],-0.303
same,glycan array binding signal (z-score),[40],-0.335

# Source: the supplement of paper PMC8728848
